Our source for the binding signal values is PMC12136788.

T1: UNK ZnF1-3 (human, UniProt Q9C0B0 31-174)
T1 sequence: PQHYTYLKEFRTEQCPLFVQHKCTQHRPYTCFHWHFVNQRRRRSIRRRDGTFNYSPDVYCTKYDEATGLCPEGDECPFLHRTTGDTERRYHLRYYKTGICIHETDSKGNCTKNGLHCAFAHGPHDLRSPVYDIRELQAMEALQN

B1: chr1:163117127:163117128:-_ENSG00000143248_ENST00000313961|hu_mus|hu_hu_hu_mus_False|98_98 (ssRNA)
RNA: GGGAGUUCUACAGUCCGACGAUCUGCUACAAAGGAUGGAGGAAAUAUCACAGGGCAACUUUUGGAAGCCUGACCAGAUGACUACUUGAUUAGCUCCUUAUAAAAUUCAGAGCGCACAAAGCGGGGCAGAGAAUCCUUCUCCAUCAACAGAGGAUUGAGCAUCA
B2: chr8:104061119:104061120:+_ENSG00000155097_ENST00000518738|hu_mus|FALSE|FALSE (ssRNA)
RNA: GGGAGUUCUACAGUCCGACGAUCCAAGUUCUCCUGAACUUUAUCUUUGCUGUCCUCCAGCACAUCAGCCAUGUACUGAGCCACUUUCUUGACCACACCUUCUACAAAUGCAUCCAGUUUAGCCAGUUCAUCCGACAAGCCAACCAACAGAGGAUUGAGCAUCA
B3: chr4:25749455:25749456:-_ENSG00000091490_ENST00000264868|hu_hu|hu_hu_hu_mus_False|18_48 (ssRNA)
RNA: GGGAGUUCUACAGUCCGACGAUCGCACUAUGACCUCUAGAAAAAUCCACAGGGGGAAAAAAUGUAAACCAAUGUACAAUGUUAUCGCCCUCCCUGCGUGUGGAGUGUUUGUCUCAAUAUUUCAAGGAGCUGCUGGAUUUGGGACAACAGAGGAUUGAGCAUCA
B4: chr16:18283852:18283853:-_ENSMUSG00000022718_ENSMUST00000009321|mus_hu|FALSE|FALSE (ssRNA)
RNA: GGGAGUUCUACAGUCCGACGAUCGGGGAAAUUCAAGGCCUCUUCAUCCACUCUGUCUCUCUGAACGAUUGCUUUAGCCGUGAACCCGCCUGCUCCUUCUUCAUCUAGCUCCAAAUUGUCAGUAAAAUCUUCUAACUCAUCGAGCAACAGAGGAUUGAGCAUCA
B5: chr1:39494447:39494448:+_ENSG00000168653_ENST00000372967|hu_mus|hu_hu_hu_mus_False|48_58 (ssRNA)
RNA: GGGAGUUCUACAGUCCGACGAUCGCACCGAGCGGCGUUCUUAUAGGGCUGUUCUGCGCUUAGGAACAUAAAGUGCCGAUCUAUGUUAAGGCCGAACUUUUUCUGUAUGUCAAGGAAAGGCAUGGCUCUGCAGUGCCCUUGUCACAACAGAGGAUUGAGCAUCA
B6: chr14:76904430:76904431:+_ENSMUSG00000022010_ENSMUST00000022587|mus_mus|mus_mus_mus_hu_True|58_78 (ssRNA)
RNA: GGGAGUUCUACAGUCCGACGAUCUGCAGCCAAAAACACCCUCGUGGAAAAAAAGAGCAAGCUCCAGCAGCCUUGUACAAACUAGAUAAAAUCUUCUGGCUUUCCGCAGCCCAGGGAGAAACAGAAAACGGCAGCCCUAAUUUACAACAGAGGAUUGAGCAUCA
B7: chr7:131071926:131071927:+_ENSG00000128585_ENST00000352689|hu_hu|motif|central (ssRNA)
RNA: GGGAGUUCUACAGUCCGACGAUCUUUCUUCAAAUUGCAAACAUGAGUUUUCUCAUAUUUUCCAAAUGUGAUAUUCUGAACGGUAGCAGGCCUUUCGAGCUUUAGAAUCAAGUACUGGGGAGGAUAGUUGCUCUCUGAAGACCACAACAGAGGAUUGAGCAUCA
B8: chr13:56191178:56191179:-_ENSMUSG00000015937_ENSMUST00000016081|mus_mus|motif|central (ssRNA)
RNA: GGGAGUUCUACAGUCCGACGAUCUUUAAGGUCAAUGUCAGCAUUGGUAGGAUUGAUUAUGGCCUCCACCUCAAAGCCGGCGGAAUUACUGAUUUCACUGUGAAUAAGGUUCAGCUUCUGGCCGAGGAAGAGGCUCUUGGUGGACAACAGAGGAUUGAGCAUCA
B9: chr6:38652254:38652255:-_ENSG00000124767_ENST00000373365|hu_hu|hu_hu_hu_mus_False|98_108 (ssRNA)
RNA: GGGAGUUCUACAGUCCGACGAUCCGAAAACUUCAUAAUGGGAAAAUCAAGCUUCUGCAGGAGGGUCAGUCCAAGAACCCUCGUAUAAAAAUCCAGGGACUUCUUAGGAUCCUUAAUUCUUAGCAUCGUUUGCUGCAGUAGAAACAACAGAGGAUUGAGCAUCA
B10: chr7:135333399:135333400:+_ENSG00000155561_ENST00000285968|hu_hu|motif|central (ssRNA)
RNA: GGGAGUUCUACAGUCCGACGAUCUGUCCAUAUACAAAGAAAGAAAUAGCAAAAUAUUUUUGGUCAUAAUUUAGAAAGAAACGGAUCGGUAAAAUGGAGACAAUUCUCCCCAAUUCAUCUCUCUCAUAGAAGAGCAUAAGCACGCAACAGAGGAUUGAGCAUCA
B11: chr2:223789231:223789232:+_ENSG00000123983_ENST00000392066|hu_hu|motif|central (ssRNA)
RNA: GGGAGUUCUACAGUCCGACGAUCUUUUGAAAUCUGUUCCAUUUUGUAAUUAUAGGCCAGAAUAAACAGAUUACGUUGAAAACGGCUCAUUUCACUGACUUUAUUCAUGACAUUUUUGUAGAUCCGAUCCAUGAUUUCCGGAACCAACAGAGGAUUGAGCAUCA
B12: chr12:110929880:110929881:-_ENSG00000111237_ENST00000549970|hu_mus|FALSE|FALSE (ssRNA)
RNA: GGGAGUUCUACAGUCCGACGAUCCUCAAUUCGUUCUACUUUGACGUCAUCUCCAAUUAGUUGAUAGACGUAAGUGACCACAGUAGAAGCCUGGAUGUCCAUCAGCACAAACGAUGGAAUAAUGUUUGUUUCCAAGGCAUUAUACAACAGAGGAUUGAGCAUCA
B13: chr14:53113150:53113151:-_ENSG00000197930_ENST00000395686|hu_hu|motif|central (ssRNA)
RNA: GGGAGUUCUACAGUCCGACGAUCUCCCCACAGACGACAUUUAAAACAACCAACACAAUCCAUAAUUCUUGAAAUAUUUCGGAAAUGCAGUCGAAAGUCCUCCUUUAGUUUGUGUGCUUCUUUUUUAUCCCCAGCAAAAAAUGACAACAGAGGAUUGAGCAUCA
B14: chr2:10930004:10930005:-_ENSG00000143870_ENST00000272227|hu_mus|FALSE|FALSE (ssRNA)
RNA: GGGAGUUCUACAGUCCGACGAUCAUCAUAGUCCACAGGAGACUCGCCUUUCUGAAAUAUCUUGAUUGUAGGGAAUCCUUUAAUCCCGUAUCGGCUGGCCAGAACCUGAUUCAUGGUGGCAUCCACAGCUGCCAGUUUCACUUUCAACAGAGGAUUGAGCAUCA
B15: 49646213_49650828_442_CDS_ENSMUSG00000028309_ENSMUST00000029989|mouse|control|control (ssRNA)
RNA: GGGAGUUCUACAGUCCGACGAUCUUCUGCUAGCUUACGAUUCUUGGAUUGCAGUGUUCGAAUGUCUAAUUCCUCCGUUGAAGAGACACCUCCUAACUUAAUUGUUUCCACGGUGGUCCCUGAAUCUUCAACAGCUGUCUUCUUCAACAGAGGAUUGAGCAUCA
B16: chr11:86532819:86532820:-_ENSMUSG00000047126_ENSMUST00000103186|perfect_dup|motif|central (ssRNA)
RNA: GGGAGUUCUACAGUCCGACGAUCCAUGGCUCUGAGACAUUCUAGGGAGUCUUCUACUGAUAAGGAACCAAAGUAGUUGACGGACCACUCAGGGUUAAGAAGAUGGGUGUGAACCACUGCACGUUUUAUAUCAUAUAAAUCAGUCAACAGAGGAUUGAGCAUCA
B17: chr10:126492284:126492285:-_ENSMUSG00000040502_ENSMUST00000040307|mus_mus|motif|central (ssRNA)
RNA: GGGAGUUCUACAGUCCGACGAUCAUGCACACCACUAACCCACACCCCCAGCCCUUAGACCCACAUUCCCCAAAUCCUUUCGGUAAUAAAUAAGAGUUCUUACGCCUCUCUCUCUCAGUAAUACCAUUAGCCGGGCACACCUGGCAACAGAGGAUUGAGCAUCA
B18: chr3:90158266:90158267:+_ENSMUSG00000042390_ENSMUST00000049382|mus_mus|FALSE|FALSE (ssRNA)
RNA: GGGAGUUCUACAGUCCGACGAUCACCAUUCUUUUCUUGCUUCCAGUGAGGGGUGAAAUCUGUGCGGCACUGGGCACAUACAAAGGGUUCGACCCUCAGAAGUGAGGCACAGUUUUUGCCUUGGCUGUCAAUGACACUCUGUACCAACAGAGGAUUGAGCAUCA
B19: chr7:125984895:125984896:+_ENSMUSG00000030982_ENSMUST00000106553|mus_hu|FALSE|FALSE (ssRNA)
RNA: GGGAGUUCUACAGUCCGACGAUCGGCCAAAGCUUAAAACAAUUUGUACAUAUGUAAAAAGAAAAGAAAAAUGAGAAACCUAAAUUGCCGUAAGAGUUCAGGGCAGCAGAGCAGAUCUUUCUGGAUUUGGCACCAGAGUCCCUGCAACAGAGGAUUGAGCAUCA
B20: chr9:131455196:131455197:+_ENSG00000119335_ENST00000372688|hu_mus|motif|central (ssRNA)
RNA: GGGAGUUCUACAGUCCGACGAUCAAAUUCUUUGGAGAGAACUUUAUUUUCAAAGUAAGGAUUUUCAUCAAAAUAAAAAUCGGUUCUGUAACCUGAUUUAAUGUCUUCAAAUUCUGUCACUUCAACUCUGGUCAAAUAAUGCAGCAACAGAGGAUUGAGCAUCA
B21: chr9:96978117:96978118:-_ENSMUSG00000032449_ENSMUST00000035024|mus_mus|FALSE|FALSE (ssRNA)
RNA: GGGAGUUCUACAGUCCGACGAUCUACAUAACAAUGUUAAAGAAAUUAACAUGAAUUCUCUCCUGACCCUUACCCCCUCAAAAGGCCACAAAGUGCAUUCACAAAGUCAUUCUGAAGAGAAAGCCAUUGCACAAAGUGUAAAGUCAACAGAGGAUUGAGCAUCA
B22: chr16:36023280:36023281:+_ENSMUSG00000022905_ENSMUST00000004054|mus_mus|FALSE|FALSE (ssRNA)
RNA: GGGAGUUCUACAGUCCGACGAUCUGUCUGAAUAUCAUCCCCUGUGACAAUGUUUCCCACAGCCCGCAAAGCAGGAGAAACUACUUUAUAGUCAUUAUGCAUCAGAAGUUCCACAAGCCUCCUGCAGACUCCUGCAUCGAUGACCAACAGAGGAUUGAGCAUCA

This is one part of the list.

This assay concerns the target T1, UNK ZnF1-3. As to the kind of experiment: nsRBNS (natural sequence RNA bind-n-seq); RBNS binding buffer (assumed for nsRBNS): 25 mM Tris pH 7.5, 150 mM KCl, 3 mM MgCl2, 0.01% Triton X-100, 500 ug/ml BSA, 20 U/ml SUPERase-In, 4 C; UNK is unkempt and MSI1 is Musashi-1; names of the RNAs are library labels; protein concentration not given here; high values mean tight binding.
The molecule B1 returned a binding signal of 1.61 enrichment R. In turn, B2 registered a binding signal of 0.818 enrichment R. In the case of B3, the binding signal came to 1.31 enrichment R. For B4 the value was 1.18 enrichment R; for B5, 0.62 enrichment R; for B6, 2.41 enrichment R. For B7 the value was 0.942 enrichment R; for B8, 0.878 enrichment R; for B9, 1.06 enrichment R. In turn, B10 yielded a binding signal of 1.28 enrichment R. For B11 the value was 0.593 enrichment R. For B12 the value was 1.02 enrichment R; for B13, 1.58 enrichment R. For B14 the value was 1 enrichment R.

In turn, B15 returned a binding signal of 0.603 enrichment R.

B16 displayed a binding signal of 1.08 enrichment R. The molecule B17 yielded a binding signal of 1.52 enrichment R. Molecule B18 came in with a binding signal of 0.745 enrichment R.

Molecule B19 gave a binding signal of 2.87 enrichment R. As to B20, the binding signal was determined as 0.57 enrichment R. As for B21, the binding signal was found to be 1.31 enrichment R. For B22 the value was 1.3 enrichment R.
